Results published in US20220313819A1, “COMBINATION THERAPY FOR THE TREATMENT OF SOLID AND HEMATOLOGICAL CANCERS” (Arch Oncology, Inc., priority 2019, published 2022).

Tests used:
[1] = target: T1, human CD47 (Homo sapiens, UniProt Q08722); test: Binding to OV10 hCD47 cells, cell-based ELISA; settings: apparent Kd; chimeric (xi) mAbs, Table 1
T1 construct: expressed in transfected cells; host or cells: OV10 human ovarian cancer cells
Description: (§1) The binding of chimeric (murine-human) and humanized antibodies of the present disclosure was determined by ELISA using OV10 cells transfected with human CD47 (OV10 hCD47) or using freshly isolated human red blood cells (hRBCs), which display CD47 on their surface (Kamel et al. (2010) Blood. Transfus. 8(4):260-266).
Binding activities of VLX4, VLX8, and VLX9 chimeric (xi) and humanized mAbs were determined using a cell-based ELISA assay with human OV10 hCD47cells expressing cell surface human CD47. OV10 hCD47 cells were grown in IMDM medium containing 10% heat inactivated fetal bovine serum (BioWest; S01520). One day before assay, 3×10^4 cells were plated in 96 well cell bind plates (Corning #3300, VWR #66025-626) and were 95-100% confluent at the time of assay. Cells were washed, various concentrations of purified antibodies added in IMDM and incubated at 37° C. for 1 hr in 95% O2/5% CO2. Cells were then washed with media and incubated for an additional hour at 37° C. with HRP labelled secondary anti-human antibody (Promega) diluted 1/2500 in media. […] Reactions were terminated by the addition of HCl to 0.7N, and absorbance at 450 nm determined using a Tecan model Infinite M200 plate reader. The apparent binding affinities of these clones to human OV10 hCD47 cells was determined by non-linear fit (Prism GraphPad software).

[2] = target: T2, human CD47 on hRBCs (Homo sapiens, UniProt Q08722); test: Binding to freshly isolated human red blood cells, flow cytometry; settings: apparent Kd; chimeric (xi) mAbs, Table 1; read-out: Kd (pM) hRBC
T2 construct: freshly isolated human red blood cells (hRBCs), which display CD47 on their surface; from tissue; host or cells: human blood, washed red blood cells
Description: as §1
Binding activities of chimeric and humanized VLX4, VLX8, and VLX9 mAbs to human CD47 on hRBCs were also determined using flow cytometry.

[3] = test system: hRBCs; test: Hemagglutination of washed human red blood cells; format: cell-based; settings: hemagglutination; chimeric (xi) mAbs, Table 1
Description: Hemagglutination of hRBCs was assessed following incubation of hRBCs with various concentrations of chimeric and humanized VLX4, VLX8, and VLX9 mAbs in vitro essentially as described by Kikuchi et al. Biochem Biophys Res. Commun (2004) 315:912-918. Blood was obtained from healthy donors, diluted (1:50) in PBS/1 mM EDTA/BSA and washed 3 times with PBS/EDTA/BSA. hRBCs were added to U-bottomed 96 well plates with equal volumes of the antibodies (75 μl of each) and incubated for 3 hrs at 37° C. and overnight at 4° C.

[4] = test system: Jurkat cells; test: Phagocytosis of tumor cells by human macrophages; format: cell-based; settings: 1 μg/ml mAb
Description: Human derived macrophages were derived from leukapheresis of healthy human peripheral blood and incubated in AIM-V media (Life Technologies) for 7-10 days. For the in vitro phagocytosis assay, macrophages were re-plated at a concentration of 1×10^4 cells per well in 100 ul of AIM-V media in a 96-well plate and allowed to adhere for 24 hrs. Once the effector macrophages adhered to the culture dish, the target human cancer cells (Jurkat) were labelled with 1 μM 5(6)-Carboxyfluorescein diacetate N-succinimidyl ester (CFSE; Sigma Aldrich) and added to the macrophage cultures at a concentration of 5×10^4 cells in […] of AIM-V media (5:1 target to effector ratio). VLX4, VLX8, and VLX9 CD47 mAbs (1 μg/ml) were added immediately upon mixture of target and effector cells and allowed to incubate at 37° C. for 2-3 hours. After 2-3 hrs, all non-phagocytosed cells were removed and the remaining cells washed three times with phosphate buffered saline (PBS; Sigma Aldrich). Cells were then trypsinized, collected into microcentrifuge tubes, and incubated in 100 ng of allophycocyanin (APC) labelled CD14 antibodies (BD Biosciences) for 30 minutes, washed once, and analyzed by flow cytometry (Accuri C6; BD Biosciences) for the percentage of CD14^+ cells that were also CFSE^+ indicating complete phagocytosis.

B1: VLX4 IgG4 S228P (xi): chimeric VLX4 anti-CD47 mAb, human IgG4 S228P (antibody)
heavy: EVQLQQSGPELVKPGASVKMSCKASGYTFTNYVIHWVKRRPGQGLEWIGYIYPYNDGILYNEKFKGKATVTSDKSSSTAYMDLSSLTSEDSAVYYCTRGGYYVPDYWGQGTTLTVSSASTKGPSVFPLAPCSRSTSESTAALGCLVKDYFPEPVTVSWNSGALTSGVHTFPAVLQSSGLYSLSSVVTVPSSSLGTKTYTCNVDHKPSNTKVDKRV[human IgG4 Fc with S228P (EU numbers) not given here]
light: DVLMTQTPLSLPVNLGDQASISCRSRQSIVHTNGNTYLGWFLQKPGQSPKLLIYKVSNRFSGVPDRFSGSGSGTDFTLTISRVEAEDLGVYYCFQGSHVPYTFGGGTKLEIKRTVAAPSVFIFPPSDEQLKSGTASVVCLLNNFYPREAKVQWKVDNALQSGNSQESVTEQDSKDSTYSLSSTLTLSKADYEKHKVYACEVTHQGLSSPVTKSFNRGEC
Question: B1 was tested. Which Kd [1] did it give?
Answer: 214 pM

Question: And the Kd [2]?
Answer: 99 pM

Question: And the “HA hRBC” value [3]?
Answer: No

Question: And the “phagocytosis of Jurkat cells by human macrophages” value [4]?
Answer: increased phagocytosis
